This is an account of results in PMC4845016.

These are yes or no findings as the source states them, for the method shown. Binding seen in cells or lysates may run through a third protein. Some binding calls cover weakened binding; strength is not graded here.

Assay in all cases: co-IP; cells co-transfected with flag- and CFP-tagged proteins; lysis in NETN buffer (100 mM NaCl, 20 mM Tris-Cl pH 8.0, 0.5 mM EDTA, 0.5% NP-40); anti-flag M2 beads; washes with high-salt NETN (300 mM NaCl); 4 °C; immunoblotting; EB1-EB2 also tested with CCCP treatment of the cells (Fig. 4D)
The target of one test is T1, Endophilin B2 (human) (UniProt Q9NR46).
T1 sequence: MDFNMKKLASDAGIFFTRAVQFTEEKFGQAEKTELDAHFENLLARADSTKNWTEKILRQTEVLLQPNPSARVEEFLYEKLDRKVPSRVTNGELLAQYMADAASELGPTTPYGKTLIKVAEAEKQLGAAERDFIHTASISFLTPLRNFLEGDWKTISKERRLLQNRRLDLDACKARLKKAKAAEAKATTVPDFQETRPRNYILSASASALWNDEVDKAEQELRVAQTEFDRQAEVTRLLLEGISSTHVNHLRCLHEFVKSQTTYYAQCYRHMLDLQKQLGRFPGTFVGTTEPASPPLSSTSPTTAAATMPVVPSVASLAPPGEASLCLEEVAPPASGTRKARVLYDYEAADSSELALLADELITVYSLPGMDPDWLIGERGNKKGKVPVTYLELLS

Another test addresses T2, Endophilin B1 (mouse) (UniProt Q9JK48).
T2 sequence: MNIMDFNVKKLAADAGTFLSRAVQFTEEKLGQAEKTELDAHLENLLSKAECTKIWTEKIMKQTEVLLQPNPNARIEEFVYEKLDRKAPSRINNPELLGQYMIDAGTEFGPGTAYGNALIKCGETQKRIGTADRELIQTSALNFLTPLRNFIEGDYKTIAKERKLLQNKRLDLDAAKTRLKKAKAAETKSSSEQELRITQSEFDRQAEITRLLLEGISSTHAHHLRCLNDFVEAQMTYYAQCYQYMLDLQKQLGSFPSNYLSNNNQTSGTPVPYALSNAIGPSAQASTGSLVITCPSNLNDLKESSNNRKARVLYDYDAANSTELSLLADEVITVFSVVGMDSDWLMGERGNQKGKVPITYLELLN

In test [1] the target is T3, Endophilin B2 (human), Q9NR46.
T3 chain: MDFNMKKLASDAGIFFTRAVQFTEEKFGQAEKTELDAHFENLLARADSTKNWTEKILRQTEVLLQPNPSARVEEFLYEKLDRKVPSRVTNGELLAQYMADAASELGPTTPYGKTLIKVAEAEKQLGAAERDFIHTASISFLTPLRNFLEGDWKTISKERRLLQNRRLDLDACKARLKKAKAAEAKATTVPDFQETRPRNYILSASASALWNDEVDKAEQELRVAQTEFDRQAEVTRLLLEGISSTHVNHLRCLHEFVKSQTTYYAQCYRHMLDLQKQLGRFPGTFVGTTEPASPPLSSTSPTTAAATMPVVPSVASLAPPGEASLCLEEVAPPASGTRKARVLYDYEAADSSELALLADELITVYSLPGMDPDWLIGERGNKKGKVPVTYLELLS
The note with it: remark: other sources report otherwise.

B1: EB2 (Δ153–185) (protein, UniProt Q9NR46)
chain: MDFNMKKLASDAGIFFTRAVQFTEEKFGQAEKTELDAHFENLLARADSTKNWTEKILRQTEVLLQPNPSARVEEFLYEKLDRKVPSRVTNGELLAQYMADAASELGPTTPYGKTLIKVAEAEKQLGAAERDFIHTASISFLTPLRNFLEGDWATTVPDFQETRPRNYILSASASALWNDEVDKAEQELRVAQTEFDRQAEVTRLLLEGISSTHVNHLRCLHEFVKSQTTYYAQCYRHMLDLQKQLGRFPGTFVGTTEPASPPLSSTSPTTAAATMPVVPSVASLAPPGEASLCLEEVAPPASGTRKARVLYDYEAADSSELALLADELITVYSLPGMDPDWLIGERGNKKGKVPVTYLELLS
Consider B1, for which the binding result in the test with Endophilin B2 (human) and with Endophilin B1 (mouse) was “no binding” each time.

B2: Endophilin B2 (protein, UniProt Q9NR46 1-395)
chain: MDFNMKKLASDAGIFFTRAVQFTEEKFGQAEKTELDAHFENLLARADSTKNWTEKILRQTEVLLQPNPSARVEEFLYEKLDRKVPSRVTNGELLAQYMADAASELGPTTPYGKTLIKVAEAEKQLGAAERDFIHTASISFLTPLRNFLEGDWKTISKERRLLQNRRLDLDACKARLKKAKAAEAKATTVPDFQETRPRNYILSASASALWNDEVDKAEQELRVAQTEFDRQAEVTRLLLEGISSTHVNHLRCLHEFVKSQTTYYAQCYRHMLDLQKQLGRFPGTFVGTTEPASPPLSSTSPTTAAATMPVVPSVASLAPPGEASLCLEEVAPPASGTRKARVLYDYEAADSSELALLADELITVYSLPGMDPDWLIGERGNKKGKVPVTYLELLS
As for B2, in the test with Endophilin B1 (mouse), the binding entry was “binds”.

B3: Endophilin B2, Q9NR46 1-395 (protein)
chain: MDFNMKKLASDAGIFFTRAVQFTEEKFGQAEKTELDAHFENLLARADSTKNWTEKILRQTEVLLQPNPSARVEEFLYEKLDRKVPSRVTNGELLAQYMADAASELGPTTPYGKTLIKVAEAEKQLGAAERDFIHTASISFLTPLRNFLEGDWKTISKERRLLQNRRLDLDACKARLKKAKAAEAKATTVPDFQETRPRNYILSASASALWNDEVDKAEQELRVAQTEFDRQAEVTRLLLEGISSTHVNHLRCLHEFVKSQTTYYAQCYRHMLDLQKQLGRFPGTFVGTTEPASPPLSSTSPTTAAATMPVVPSVASLAPPGEASLCLEEVAPPASGTRKARVLYDYEAADSSELALLADELITVYSLPGMDPDWLIGERGNKKGKVPVTYLELLS
With B3, the binding result in test [1] is recorded as “binds”.

B4: EB1 (Δ156–188) (protein, UniProt Q9JK48)
chain: MNIMDFNVKKLAADAGTFLSRAVQFTEEKLGQAEKTELDAHLENLLSKAECTKIWTEKIMKQTEVLLQPNPNARIEEFVYEKLDRKAPSRINNPELLGQYMIDAGTEFGPGTAYGNALIKCGETQKRIGTADRELIQTSALNFLTPLRNFIEGDYSSSEQELRITQSEFDRQAEITRLLLEGISSTHAHHLRCLNDFVEAQMTYYAQCYQYMLDLQKQLGSFPSNYLSNNNQTSGTPVPYALSNAIGPSAQASTGSLVITCPSNLNDLKESSNNRKARVLYDYDAANSTELSLLADEVITVFSVVGMDSDWLMGERGNQKGKVPITYLELLN
As to B4, the binding result with Endophilin B2 (human) was “binds”.

B5: Endophilin B1 (protein, UniProt Q9JK48-1 1-365)
chain: MNIMDFNVKKLAADAGTFLSRAVQFTEEKLGQAEKTELDAHLENLLSKAECTKIWTEKIMKQTEVLLQPNPNARIEEFVYEKLDRKAPSRINNPELLGQYMIDAGTEFGPGTAYGNALIKCGETQKRIGTADRELIQTSALNFLTPLRNFIEGDYKTIAKERKLLQNKRLDLDAAKTRLKKAKAAETKSSSEQELRITQSEFDRQAEITRLLLEGISSTHAHHLRCLNDFVEAQMTYYAQCYQYMLDLQKQLGSFPSNYLSNNNQTSGTPVPYALSNAIGPSAQASTGSLVITCPSNLNDLKESSNNRKARVLYDYDAANSTELSLLADEVITVFSVVGMDSDWLMGERGNQKGKVPITYLELLN
For B5, the binding result in the test with Endophilin B1 (mouse) was “binds”.
